Experimental data taken from PubChem BioAssay AID881 (National Center for Advancing Translational Sciences (NCATS), 2007).
About 610 (0.55%) of roughly 110,000 compounds were called active. This list was built around the results that the source calls inconclusive (neither active nor inactive); the mix of calls is not that of the screen. Calls come from the whole dose curve; as a rule, active = well fitted inhibition curve with a large enough effect; inconclusive = small, poorly fitted or top-dose-only effect; inactive = no such curve, though single readings can be large or run the other way. Potencies beside an inconclusive call are fits to weak or partial responses and may not hold up.

target: Polyunsaturated fatty acid lipoxygenase ALOX15B (Homo sapiens) (UniProt O15296); experiment: qHTS Assay for Inhibitors of 15-hLO-2 (15-human lipoxygenase 2); conditions: purified 15hLO-2, xylenol orange hydroperoxide absorbance; activity change, negative = inhibition: at 57.1 µM (top of the series) unless noted; note: nearly all actives have a fitted effect of over 60% in size
Chain of UniProt O15296 (O15296 whole entry, looked up): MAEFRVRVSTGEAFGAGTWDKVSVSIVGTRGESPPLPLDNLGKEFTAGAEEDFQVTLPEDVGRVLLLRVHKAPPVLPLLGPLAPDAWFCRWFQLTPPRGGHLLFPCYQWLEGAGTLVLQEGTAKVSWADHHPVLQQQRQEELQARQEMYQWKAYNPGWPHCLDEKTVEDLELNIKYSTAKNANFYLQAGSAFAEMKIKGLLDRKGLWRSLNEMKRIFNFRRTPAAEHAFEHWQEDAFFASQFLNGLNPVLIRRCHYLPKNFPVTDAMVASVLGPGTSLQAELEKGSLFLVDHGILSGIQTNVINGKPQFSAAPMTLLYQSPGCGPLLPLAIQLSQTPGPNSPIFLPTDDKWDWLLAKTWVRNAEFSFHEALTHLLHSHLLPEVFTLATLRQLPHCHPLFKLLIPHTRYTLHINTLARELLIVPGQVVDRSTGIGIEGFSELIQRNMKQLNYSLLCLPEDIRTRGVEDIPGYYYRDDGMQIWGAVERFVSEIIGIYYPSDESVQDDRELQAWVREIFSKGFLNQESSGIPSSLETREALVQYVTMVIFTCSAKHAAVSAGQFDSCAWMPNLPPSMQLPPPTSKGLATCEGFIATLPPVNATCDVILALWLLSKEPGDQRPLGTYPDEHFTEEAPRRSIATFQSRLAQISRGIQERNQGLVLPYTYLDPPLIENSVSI
Procedure, shortened: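 Purified human 15hLO-2 (50 nM final) preincubated with compounds 15 min at room temperature in 25 mM Hepes pH 7.5, 0.01% Triton X-100, then 45 uM arachidonic acid added for 90 min; hydroperoxide detected via ferrous/xylenol orange, 573/405 nm absorbance ratio.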
% is set by controls: 0 for no effect and ±100 for the full control effect; potency is the fitted concentration of half-maximal effect; tags give direction and shape of the fitted curve.

SMILES | Potency | activity change, negative = inhibition
CCCc1cc(C(=O)Cc2ccc(C(=O)OCC)o2)c(O)cc1O | inconclusive: 12.6 µM [inhibitor, single point] | –
Cc1ccc(-c2nc(=S)c3c(n2Cc2ccco2)CC(C)(C)OC3)cc1 | inconclusive: 39.8 µM [inhibitor, single point] | –
Cc1ccc(C)c(NC(=S)NC(NC(=O)Cc2ccccc2)C(Cl)(Cl)Cl)c1 (centres undefined) | inconclusive: 25.1 µM [inhibitor, partial curve] | –
Cc1ccc(S(=O)(=O)Nc2ccc(=O)n(Cc3ccc(Cl)c(Cl)c3)c2)cc1 | inconclusive: 31.6 µM [inhibitor, single point] | –
O=C(NC1CCCCC1)c1sc(=S)n2c1[nH]c(=O)c1ccccc12 | inconclusive: 7.94 µM [inhibitor, partial curve] | –
CC(=O)NC1=NN(C(C)=O)C(c2sccc2C)S1 (centres undefined) | – | inactive: -4.67%
O=C(O)CCC(=O)Nc1nc2ccccc2s1 | – | inactive: -1.01%
Cc1cc(C)c2c(-n3cccc3)c(C(=O)O)sc2n1 | – | inactive: -0.835%
COc1ccc(C2C(C#N)=C(N)Oc3c2c(C)nn3-c2ccccc2)cc1Cn1nc(C)c([N+](=O)[O-])c1C (centres undefined) | inconclusive: 6.31 µM [inhibitor, partial curve] | –
CC(C)(C)OC(=O)N[C@@H](Cc1ccccc1)c1nnc(S(=O)(=O)Cc2cccc(F)c2)o1 | inconclusive: 7.94 µM [inhibitor, partial curve] | –
Cc1ccc2oc(-c3ccc(C)c(NC(=O)Cc4cccs4)c3)nc2c1 | inconclusive: 25.1 µM [inhibitor, partial curve] | –
CCn1c(SCC(=O)N2CCN(c3ccc(F)cc3)CC2)nc2ccccc2c1=O | – | inactive: 3.31%
O=C(CCC1N=C2c3ccccc3N=C(SCc3ccc(F)cc3)N2C1=O)NCc1ccco1 (centres undefined) | inconclusive: 39.8 µM [inhibitor, single point] | –
Cn1c(=O)n(CCCOc2ccc(Br)cc2)c2ccccc21 | – | inactive: 7.54%
COc1ccccc1N1CCN(C(=O)CSc2nc3ccccc3o2)CC1 | inconclusive: 31.6 µM [inhibitor, single point] | –
Cc1cccc(NC(=S)N2CCC(c3nc4ccccc4o3)CC2)c1C | inconclusive: 15.8 µM [inhibitor, partial curve] | –
O=C(COC(=O)Cc1cn2ccsc2n1)Nc1nc2ccccc2s1 | – | inactive: 9.45%
COc1ccccc1CNc1ncnc2ccc(-c3ccc(N(C)C)cc3)cc12 | – | inactive: 61.1%
Cc1ccc(-c2nnn(CC(=O)N(c3cccc(O)c3)C(C(=O)NC(C)(C)C)c3cccs3)n2)o1 (centres undefined) | inconclusive: 25.1 µM [inhibitor, partial curve] | –
